Drawing on the supplement of paper PMC9446081, this text covers relative growth for 40 compounds.

Screen size: about 39,000 compounds; about 220 (0.56%) showed activity. Some of the results follow.
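Note: static incubation at 37 °C against the wild-type strain, values averaged over two biological replicates.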

The test relates to Escherichia coli K-12 BW25113. The test is described as follows: relative growth (OD600 normalised to plate interquartile mean) (fraction); higher = less growth inhibition, active = 0.2 or less. Conditions: 50 µM; LB; incubation time: overnight (16-24 h).
As for `Cc1cc(-c2cc(OC(=O)c3ccccc3)ccc2Cl)cc2nnc(Nc3ccc(OCCN4CCCC4)cc3)nc12`, the relative growth is inactive: 1.01.
For `CC(C)NC(=O)N(C)C[C@@H]1Oc2c(NC(=O)Nc3ccc4c(c3)OCO4)cccc2C(=O)N([C@H](C)CO)C[C@H]1C` the value was inactive: 1.03; for `CCCCCC1C(=O)CCC1CC(=O)OC` (stereo not given), inactive: 1.19.
The same measure for `C[C@@H]1CCCCO[C@@H](CN(C)S(=O)(=O)c2ccc(Cl)cc2)[C@H](C)CN([C@@H](C)CO)C(=O)c2cc(NS(=O)(=O)c3ccccc3)ccc2O1`: inactive: 1.03.
The same measure for `Cc1noc(C)c1NC(=O)Nc1ccc2c(c1)C(=O)N([C@H](C)CO)C[C@@H](C)[C@@H](CN(C)S(=O)(=O)c1ccc(F)cc1)OCCCC[C@@H](C)O2`: inactive: 0.971; for `Cc1noc(C)c1NC(=O)Nc1ccc2c(c1)C(=O)N([C@@H](C)CO)C[C@H](C)[C@H](CN(C)S(=O)(=O)c1cccs1)OCCCC[C@H](C)O2`: inactive: 0.981.
Take `COc1ccccc1C#Cc1cnc2c(c1)C(=O)N([C@@H](C)CO)C[C@H](C)[C@H](CN(C)C(=O)CN(C)C)O2`: the relative growth is inactive: 0.988.
The same measure for `CCS(=O)(=O)Nc1ccc2c(c1)C(=O)N(C)[C@H]1CC[C@@H](CC(=O)N[C@H]3CCN(Cc4ccccc4)C3)O[C@H]1CO2`: inactive: 1.03; for `COc1ccc(CN(C)C[C@@H]2OCCCC[C@@H](C)Oc3ccc(NC(=O)CCC(F)(F)F)cc3C(=O)N([C@H](C)CO)C[C@H]2C)cc1`: inactive: 1.01.
For `COc1ccc(S(=O)(=O)N(C)C[C@@H]2Oc3ccc(NC(=O)Nc4c(C)noc4C)cc3C(=O)N([C@H](C)CO)C[C@@H]2C)cc1` the value was inactive: 0.94; for `C[C@@H]1CN([C@@H](C)CO)C(=O)c2cc(NC(=O)CCC(F)(F)F)ccc2O[C@@H](C)CCCCO[C@H]1CN(C)C(=O)Nc1cccc2ccccc12`, inactive: 1.01.
For `CN(C)C(=O)c1ccc(-c2cccc(-c3nc(C(=O)NC4CCC4)cc4c3[C@@H](CCO)N([S@](=O)C(C)(C)C)C4)c2)cc1` the value was inactive: 1.01.
Turning to `O=CNC(=O)c1ccccc1C(=O)O`, the relative growth was inactive: 0.928.
`C[C@H]1CN([C@@H](C)CO)C(=O)Cc2cc(NS(=O)(=O)c3cccs3)ccc2O[C@H]1CN(C)S(C)(=O)=O`: the relative growth was inactive: 1.01.
The same measure for `N#CCC(=O)Nc1ccncc1`: inactive: 1.05; for `Cc1csc2c(Cl)ncnc12`: inactive: 0.987; for `COc1cccc(NC(=O)N[C@H]2C=C[C@@H](CC(=O)N3CCN(C)CC3)O[C@@H]2CO)c1`: inactive: 1.03.
For `O=C(C[C@@H]1C[C@H]2c3cc(NC(=O)c4ccc5c(c4)OCO5)ccc3O[C@H]2[C@@H](CO)O1)NCc1cccnc1` the value was inactive: 0.978.
For `CO[C@H]1CN(C)C(=O)c2ccc(NS(=O)(=O)c3cn(C)cn3)cc2OC[C@H](C)N(Cc2cccc(F)c2)C[C@@H]1C`, the relative growth was inactive: 1.02.
The same measure for `CNC[C@H]1OCCCC[C@@H](C)Oc2ccc(NS(=O)(=O)c3cn(C)cn3)cc2C(=O)N([C@@H](C)CO)C[C@H]1C`: inactive: 0.997.
The same measure for `C[C@@H]1CN([C@@H](C)CO)C(=O)Cc2cc(NC(=O)NC3CCCCC3)ccc2O[C@H]1CN(C)S(=O)(=O)c1cn(C)cn1`: inactive: 0.984; for `CC(C)[C@@H](CO)N1C(=O)[C@@H]2[C@H]3C(=O)OCC=C[C@H]3O[C@]23C=CCN(c2ccc4ccccc4c2)C(=O)[C@@H]13`: inactive: 0.988.
For `CN(Cc1ccccn1)C(=O)[C@@]12COC[C@@H]1CN(S(C)(=O)=O)C2` the value was inactive: 1.02; for `CC1=C(C(N)=O)[C@@H](c2cccnc2)n2nnnc2N1`, inactive: 1.04.
As to `[N-]=[N+]=N[C@]1(CO)O[C@@H](n2ccc(N)nc2=O)[C@H](O)[C@@H]1O`, the relative growth is inactive: 0.973.
For `C[C@@H]1CN([C@@H](C)CO)C(=O)c2cc(NC(=O)C3CCCCC3)ccc2O[C@@H](C)CCCCO[C@H]1CN(C)Cc1ccc(C(F)(F)F)cc1` the value was inactive: 1.01; for `C[C@@H]1CCCn2nncc2COCCNC1=O`, inactive: 0.991.
For `FCOC(C(F)(F)F)C(F)(F)F` the value was inactive: 1.2; for `O=C(O)c1cc(O)c2cccc(O)c2n1`, inactive: 0.945.
On to `Cc1ccc(S(=O)(=O)N(C)C[C@@H]2Oc3ncc(C#Cc4cccc(F)c4)cc3C(=O)N([C@H](C)CO)C[C@@H]2C)cc1`, for which the relative growth is inactive: 1.02.
In the case of `C[C@H]1CCCCO[C@H](CN(C)C(=O)NC2CCCCC2)[C@@H](C)CN([C@@H](C)CO)C(=O)c2cc(NS(=O)(=O)c3ccc(Cl)cc3)ccc2O1`, the relative growth was inactive: 1.01.
On to `C[C@@H]1CN([C@H](C)CO)C(=O)Cc2cc(NC(=O)c3ccncc3)ccc2O[C@H]1CN(C)Cc1ccc(Oc2ccccc2)cc1`, for which the relative growth is inactive: 1.02.
Turning to `COc1ccc(S(=O)(=O)Nc2ccc3c(c2)C(=O)N([C@H](C)CO)C[C@@H](C)[C@H](CN(C)C(=O)NC2CCCCC2)OCCCC[C@@H](C)O3)cc1`, the relative growth is inactive: 0.999.
The same measure for `C[C@@H]1CN([C@H](C)CO)C(=O)Cc2cc(NC(=O)Nc3ccc(C(F)(F)F)cc3)ccc2O[C@@H]1CN(C)Cc1ccc(C(=O)Nc2ccccc2N)cc1`: inactive: 1.01.
For `C[C@H](CO)N1C[C@H](C)[C@H](CN(C)C(=O)CN(C)C)Oc2ncc(C#CC3(O)CCCC3)cc2C1=O` the value was inactive: 0.993; for `CC(C)NC(=O)Nc1cccc2c1O[C@@H](CN(C)Cc1ccc(Oc3ccccc3)cc1)[C@@H](C)CN([C@H](C)CO)C2=O`, inactive: 0.894.
As to `COc1ccc(CN(C)C[C@H]2OCCCC[C@H](C)Oc3ccc(NC(=O)c4ccncc4)cc3C(=O)N([C@@H](C)CO)C[C@H]2C)cc1`, the relative growth is inactive: 0.981.
The same measure for `COc1ccc(S(=O)(=O)N(C)C[C@H]2OCCCC[C@@H](C)Oc3ccc(NC(=O)Nc4c(C)noc4C)cc3C(=O)N([C@@H](C)CO)C[C@H]2C)cc1`: inactive: 0.971; for `C[C@@H]1CN([C@@H](C)CO)C(=O)c2cc(NC(=O)c3ccncc3)ccc2O[C@@H](C)CCCCO[C@H]1CN(C)S(=O)(=O)c1cn(C)cn1`: inactive: 0.982.
For `O=C(C[C@@H]1C=C[C@H](NC(=O)c2cccc(F)c2)[C@H](CO)O1)NCCN1CCCC1` the value was inactive: 0.919.
